Measurements published in the supplement of paper PMC3334620.
Whole data set: some 33,000 sequences, median “E-score (-0.5 to 0.5)” near -0.036, cut for the highest 2% near 0.37. This is one part of the list.

Target: T1, Yer064c (UniProt P40041)
T1 sequence: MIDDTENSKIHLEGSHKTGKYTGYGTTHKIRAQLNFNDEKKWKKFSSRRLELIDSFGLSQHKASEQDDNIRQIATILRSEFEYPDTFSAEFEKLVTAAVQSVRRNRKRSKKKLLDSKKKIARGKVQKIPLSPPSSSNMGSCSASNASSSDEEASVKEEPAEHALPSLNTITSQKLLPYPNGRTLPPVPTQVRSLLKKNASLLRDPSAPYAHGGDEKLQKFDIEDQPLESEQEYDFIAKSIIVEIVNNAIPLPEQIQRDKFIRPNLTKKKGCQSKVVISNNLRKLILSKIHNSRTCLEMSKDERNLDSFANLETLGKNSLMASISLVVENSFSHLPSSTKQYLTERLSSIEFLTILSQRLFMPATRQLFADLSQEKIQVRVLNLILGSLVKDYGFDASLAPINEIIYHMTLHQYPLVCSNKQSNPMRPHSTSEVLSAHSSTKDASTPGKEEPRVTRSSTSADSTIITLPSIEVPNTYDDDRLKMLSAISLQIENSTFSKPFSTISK
Experiment: PBM E-score (8-mer binding enrichment) (E-score (-0.5 to 0.5)); higher = stronger / more preferred TF binding; most listed sequences are background and not binding sites
Conditions: protein concentration: 200 nM; construct: GST-full length
Summary of the method: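 Detection of bound protein used fluorescent anti-GST, with scans normalised by masliner. The proteins were GST-tagged yeast transcription factors applied at about 100-200 nM to universal all-10-mer Agilent arrays made double-stranded by primer extension. Each ungapped eight-base word, pooled with its reverse complement, was scored with an E-score from the Universal PBM Analysis Suite.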

Sequence | PBM E-score
CAGAACCA | 0.075
CCGAGATC | -0.105
AAAAGATG | 0.0899
GATCGTAA | -0.068
CAAGGTTC | -0.146
CCCAACTC | -0.00233
AAAACCTT | -0.11
GACAAGAA | -0.0678
CATGGGCC | 0.0402
GACGTCGC | -0.202
TACCAGTA | -0.0512
ATATCGGC | -0.169
CTATCCTC | -0.14
GGAAGTAC | -0.137
GTGCTGAA | -0.0395
ACCGACGA | 0.0503
GTCCCGAC | 0.0408
CATTAGGA | 0.0671
GAAGACTC | 0.446
TATTAAAA | 0.0723
GGGTGGAA | -0.269
GGTCGTAC | -0.205
ACCGCGGT | -0.121
AGGTAGAT | -0.103

Sequence | PBM E-score
ATATATCC | -0.0359
CCCTTCCG | -0.203
CAAGCCCC | -0.158
GAGCGGCA | -0.171
AACCCAAA | -0.0254
ACTAGCTG | -0.00067
ATATAAAT | 0.0663
CAGTGACA | -0.162
AGTTAGCG | -0.0192
CCCGCGAC | 0.1
CACTTAGA | 0.0684
CGTTACAA | -0.016
GTAACAGA | 0.00394
GGAACGCA | -0.371
GGACTCAA | 0.409
ATAACGAG | -0.0867
ATTTATCA | 0.0846
AGGCCCGA | -0.332
TGATTGAA | 0.333
CTCGTAAA | 0.0978
CATGTTTC | 0.0994
ACGAAAGA | 0.0469
ATGACGCG | -0.0232
CTCACTTA | 0.295

Sequence | PBM E-score
AACTGTCC | -0.271
CACGTGGA | 0.0649
CGCCCTAG | -0.0199
TCGCTTAA | 0.0623
TTGAACAA | -0.106
AAAGTGTA | -0.0572
AGACCGTA | -0.11
CAAGGATC | -0.0273
CCCGGCAG | -0.181
GACCTCGA | 0.0249
ACCTAACG | -0.232
ATCCGTGA | 0.0129
ATCTAAGG | -0.0303
ATGCGTGG | -0.0922
ACTAGATC | 0.0321
GAGCCAGC | 0.046
GTGTTCAA | 0.0916
CGAATAAC | -0.0556
ACCGAGGT | -0.102
CCCCCGAC | -0.188
CCTCACCG | -0.033
CGAAGTTA | 0.0023
CTCTCTTA | 0.0697
AAAGCGGC | -0.0342

Sequence | PBM E-score
AGTGCTCA | 0.00363
ACTTTAAA | 0.164
AGACGTGG | -0.13
CGATTATA | 0.167
CAAGCTCA | -0.0628
AGCGGTGG | -0.295
AAGTCCTC | 0.188
AATCCTGT | 0.0773
GAATTCGA | 0.0614
CTTATGAC | 0.262
GCTGAGAA | -0.047
AGCATGTA | -0.0955
CGTTATTC | 0.101
CCATGCAC | -0.105
GGGGACCA | -0.112
AGTGTTCC | 0.0512
GGTATACC | -0.0355
CACCGAGC | 0.0709
ACTTTTCC | 0.185
TGTTGCAA | 0.0182
ATAGAGAG | -0.171
TATGAGCA | 0.0232
